In PMC4199508:
Where a chain is given by its changes, count along the chain named. These are yes or no findings as the source states them, for the method shown. In cells and extracts the contact can be indirect. Some results given as binding are weak or reduced against the parent protein; the word gives no strength. Sequences can lack the tags named with a protein.

Assays:
Experiment in all cases: co-IP; fission yeast cell extracts; lysis and wash buffer 50 mM Tris pH 8.0, 150 mM NaCl, 10% glycerol, 5 mM EDTA, 0.5% NP40; IP with anti-myc or anti-FLAG and Dynabeads Protein G, western blot; Tpz1-Pot1 also in ccq1Δ poz1Δ cells (anti-myc IP of Tpz1-myc)
[1] = molecular target: T1, Tpz1-L449R (myc-tagged, expressed in fission yeast) (Schizosaccharomyces pombe) (UniProt O14246)
T1 sequence: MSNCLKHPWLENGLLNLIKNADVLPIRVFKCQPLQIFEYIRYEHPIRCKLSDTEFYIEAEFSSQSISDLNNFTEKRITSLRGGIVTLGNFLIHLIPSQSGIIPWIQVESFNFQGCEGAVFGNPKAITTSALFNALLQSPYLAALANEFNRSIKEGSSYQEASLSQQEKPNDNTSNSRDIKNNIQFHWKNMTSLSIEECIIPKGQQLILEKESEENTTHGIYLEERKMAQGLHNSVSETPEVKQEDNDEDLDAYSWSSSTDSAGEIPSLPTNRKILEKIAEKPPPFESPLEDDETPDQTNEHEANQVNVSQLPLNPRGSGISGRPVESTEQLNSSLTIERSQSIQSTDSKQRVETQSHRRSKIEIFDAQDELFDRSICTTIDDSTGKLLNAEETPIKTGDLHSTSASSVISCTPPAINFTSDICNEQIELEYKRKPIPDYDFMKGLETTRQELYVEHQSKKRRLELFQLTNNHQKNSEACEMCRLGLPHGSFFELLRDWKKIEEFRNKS

[2] = molecular target: T2, Tpz1-Y439R,L445R (myc-tagged, expressed in fission yeast) (Schizosaccharomyces pombe) (UniProt O14246)
T2 sequence: T1 sequence with Y439R, L445R, R449L

[3] = molecular target: T3, Tpz1-Y439R,L445R,L449R (myc-tagged, expressed in fission yeast) (Schizosaccharomyces pombe) (UniProt O14246)
T3 sequence: T1 sequence with Y439R, L445R

[4] = molecular target: T4, Tpz1-[1–485] (C-terminally truncated Tpz1, myc-tagged, expressed in fission yeast) (Schizosaccharomyces pombe) (UniProt O14246)
T4 sequence: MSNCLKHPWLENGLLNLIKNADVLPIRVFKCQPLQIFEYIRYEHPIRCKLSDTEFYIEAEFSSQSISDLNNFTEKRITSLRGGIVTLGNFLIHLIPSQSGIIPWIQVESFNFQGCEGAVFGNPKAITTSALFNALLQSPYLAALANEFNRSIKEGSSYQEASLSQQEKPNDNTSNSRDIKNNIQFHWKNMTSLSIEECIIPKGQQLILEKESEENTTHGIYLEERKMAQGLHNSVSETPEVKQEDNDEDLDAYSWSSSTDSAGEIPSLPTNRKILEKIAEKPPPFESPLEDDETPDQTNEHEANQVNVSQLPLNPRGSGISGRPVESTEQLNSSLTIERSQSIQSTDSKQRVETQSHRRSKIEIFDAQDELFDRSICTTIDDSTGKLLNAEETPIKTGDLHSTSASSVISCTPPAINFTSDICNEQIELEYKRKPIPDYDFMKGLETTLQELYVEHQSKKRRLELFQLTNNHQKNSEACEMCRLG

[5] = molecular target: T5, Tpz1-myc (full length Tpz1, Tpz1-FL, expressed in fission yeast) (Schizosaccharomyces pombe) (UniProt O14246)
T5 sequence: T1 sequence with R449L

B1: Poz1-FLAG (expressed in fission yeast) (protein, UniProt O13852 1-249)
chain: MNEKIRSQSVLNTLETFFIKENHYDMQREESSIVNACLRYLGYSKSMCHEKMPIFMDIAFIEYCFNLSLDPSSFQNLPITQTQPDSQQILWEYSLISNALERLENIELERQNCMREDGLVKYTNELLLNKETLNNEALKLYSCAKAGICRWMAFHFLEQEPIDHINFTKFLQDWGSHNEKEMEALQRLSKHKIRKRLIYVSQHKKKMPWSKFNSVLSRYIQCTKLQLEVFCDYDFKQREIVKMLTSNIN
With B1 the binding [1] was “binds”, the binding [2] was “binds” and the binding [3] was “binds”. The binding [4] was “no binding” and the binding [5] was “binds”.
